Structures can show the parent of a compound that is named as a salt.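 48-hour exposure; five concentrations; linearly interpolated endpoints. At the GI50, growth is halved.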 Calls of active or inactive are those of the source. Rule as the data show it: active = GI50 up to about 1.1 µM and inactive = higher.
Test system: NCI-H322M
Assay: NCI-60 cell line screen, 48 h

SMILES	GI50
O=C1c2ccccc2-n2c1nc1ccc(Cl)cc1c2=O	inactive: > 100 µM
CC#CC1/C(=C\C(=O)OC)CCCC1O (stereo unspecified)	inactive: > 100 µM
COc1ccc2c(c1)CC[C@@H]1C2CC[C@]2(C)C(=O)N(C)C(=O)CC12 (stereo partly specified)	inactive: > 100 µM
COc1cc(CCC(=O)NS(=O)(=O)c2ccccc2)cc(OC)c1OC	inactive: > 100 µM
COC(=O)c1cc(C)n(CN(Cc2ccccc2)Cn2nc(C(=O)OC)cc2C)n1	inactive: > 100 µM
CC1CCN(C(C)C)P(=S)(Cc2ccccc2)O1 (stereo unspecified)	inactive: > 100 µM
Cc1cc(C)c2[s+]snc2c1	inactive: > 100 µM
COC(=O)c1ccc2c(c1)sc1nc(-c3ccc(OC)cc3)cn12	inactive: > 100 µM
CC(=O)c1ccc2c(ccc(=O)n2C)c1	inactive: > 100 µM
COc1cccc(-c2nnc3c(-c4ccccc4)nc4ccccc4n23)c1	inactive: > 100 µM
CCN(CC)CC1c2ccccc2C(CNc2ccccc2)N1C (stereo unspecified)	inactive: > 100 µM
N#CC1CCCCOCCOCCOCCOCCOCCCCCC1=O (stereo unspecified)	inactive: > 100 µM
CC1=NN(c2nc(N)nc(/C(C#N)=C\C3COc4ccccc4C3=O)n2)C(C)(C)C1 (stereo unspecified)	inactive: 38.1 µM
Nc1nc(Cl)c(N)c(NCC2(CO)CC(O)C2)n1 (stereo unspecified)	inactive: > 100 µM
C1=Cc2cccc3occ(c23)C=C1	inactive: > 100 µM
CCOP(=O)(OCC)/C(=C/c1ccccc1)CC(C)=O	inactive: > 100 µM
Cc1cc(C)c2c(O)cc(-c3ccc(Cl)cc3)nc2n1	inactive: 48.8 µM
O=C1C=CC(=O)c2c(O)c(N(CCCl)CCCl)c(Cl)c(O)c21	inactive: > 10 µM
O=S(=O)(c1ccccc1)c1ccc(-c2nc(-c3ccc4c(c3)Sc3ccccc3S4)cs2)cc1	inactive: 37.2 µM
CC(=O)OC1CC[C@]2(C)C3CC[C@@]4(C)C(CCC4[C@H](C)CCCC(C)C)[C@@H]3CCC2(Br)C1 (stereo partly specified)	inactive: 42.7 µM
COC1Cc2c(C)c(OC(C)=O)c3cccnc3c2O1 (stereo unspecified)	inactive: 56.9 µM
CCCn1c(=O)c2ccccc2[n+]2c(-c3ccc([N+](=O)[O-])cc3)csc12	inactive: 38.3 µM
CC1=NNC(=O)C1C1C(=O)NN=C(c2c[nH]c3ccccc23)C1Br (stereo unspecified)	inactive: 75.5 µM

SMILES	GI50
O=C(Nc1ccccc1)Nn1c(-c2cccs2)nc2ccc(I)cc2c1=O	inactive: 21.6 µM
O=C(O)c1ccccc1/C=C1\Cc2cc3c(cc2C1=O)CCC3	inactive: 36.1 µM
CNS(=O)(=O)NNS(=O)(=O)c1ccc(F)cc1	inactive: > 100 µM
CC(C)[C@H](NC(=O)[C@H](N)Cc1ccc(N(CCCl)CCCl)cc1)C(=O)O	inactive: > 100 µM
CN(CCCNC(=O)c1nn(-c2ccc(Cl)cc2Cl)c2c1ccc1ccccc12)CCCNC(=O)c1nn(-c2ccc(Cl)cc2Cl)c2c1ccc1ccccc12	inactive: 1.69 µM
O=C(/C=C/c1ccc2ccccc2c1)NCc1ccc(C(=O)NCCc2ccccc2)cc1	inactive: > 100 µM
COC(=O)[C@H](C)[C@@H]1CC[C@](C)(CCC2=C(C)CCCC2(C)C)OO1	inactive: > 25 µM
COc1cc(CSc2ccc(O)cc2)cc(OC)c1OC	inactive: 65.6 µM
O=S(=O)(N/N=C/c1ccc(/C=N/NS(=O)(=O)c2ccccc2)cc1)c1ccccc1	inactive: 65.6 µM
CC1(C)CN=C(Nc2ccc(F)c(F)c2)S1	inactive: > 100 µM
CC(C)C(=O)OCN(C)c1nc(N(C)COC(=O)C(C)C)nc(N(C)COC(=O)C(C)C)n1	inactive: 61.1 µM
Cc1no[n+]([O-])c1/C=N/NS(=O)(=O)c1ccccc1	inactive: > 100 µM
CC(SC(=S)N1CCOCC1)C(=O)Nc1nnc(-c2ccc(Cl)cc2)o1 (stereo unspecified)	inactive: 48.4 µM
CC(C)(C)C1CCC2c3c([nH]c4ccccc34)C3C(=O)N(c4ccc(Cl)cc4)C(=O)C3C2C1 (stereo unspecified)	inactive: > 10 µM
C[Si](C)(C)CCOCN(C(=O)C1=CCC2(CC1)OCCO2)c1ccccc1I	inactive: 19.3 µM
C[C@H]1C(=O)c2c(cc(O)c(C3OC(CO)C(O)C(O)C3O)c2O)OC1c1ccc(O)c(O)c1 (stereo partly specified)	inactive: > 100 µM
Nc1nc(NCc2ccccc2)cc(NCc2ccccc2)n1	inactive: 6.14 µM
Nc1ncn(C2OC(COP(=O)(O)O)C(O)C2O)c(=O)n1 (stereo unspecified)	inactive: > 94 µM
CCC(CC)n1cc(C(=O)NC(=O)NCCCCCOC(=O)CCCCCCCCCCC(=O)OCCCCCNC(=O)NC(=O)c2cn(C(CC)CC)c(=O)[nH]c2=O)c(=O)[nH]c1=O	inactive: > 100 µM
Nc1ccc2c(c1)N(C(=O)CCCC(=O)N1CC(CCl)c3ccc(N)cc31)CC2CCl (stereo unspecified)	inactive: 1.9 µM
CC(=O)c1cccc(N2COC(C)(C)c3nc4ccccc4n3C2)c1	inactive: > 100 µM
Cc1c(C#N)c2nnn(-c3ccc([N+](=O)[O-])cc3)c(=O)n2c1-c1ccccc1	inactive: 18.7 µM
CC(C)(C)OC(=O)N[C@@H](Cc1ccccc1)C(=O)N1CC[C@@H](C(=O)N2[C@H]3CC4CC[C@@]3(CS2(=O)=O)C4(C)C)N1	inactive: > 100 µM

SMILES	GI50
O=C1C(Cl)N(c2ccc(Cl)cc2Cl)C1c1c[nH]c2ccccc12 (stereo unspecified)	inactive: > 100 µM
CNC(=S)/C(=N\Nc1[nH]cnc1C(N)=O)C(N)=S	inactive: 12.1 µM
C/C(=C/CO[Si](C)(C)C(C)(C)C)C(=O)N(C)c1ccccc1I	inactive: 16.6 µM
O=C(Nc1cccc(F)c1)c1cc2ccc(O)cc2o/c1=N\c1cccc(F)c1	inactive: 5.61 µM
COc1ccc(C(CC2(c3ccc(OC)cc3)SCCCS2)NC(C)=O)cc1 (stereo unspecified)	inactive: > 100 µM
CC(C)=CCOc1cc(NC(=S)c2ccsc2C)ccc1Cl	inactive: 49.4 µM
O=C1CCC2(CC1CC[S+]([O-])c1ccccc1)OCCO2 (stereo unspecified)	inactive: > 100 µM
Nc1cccc(C#Cc2cccc(C#Cc3cccc(N)n3)n2)n1	inactive: > 100 µM
Cc1cccc(CC(C)(C)C)c1NC(=O)C(=O)C(C(=O)c1ccc2ccccc2c1)C1OC(=O)c2ccccc21 (stereo unspecified)	inactive: 6.01 µM
O=C1C(O)=C(CN(CCCl)CCCl)C(=O)c2ccccc21	inactive: 83 µM
Nc1cc2c3c(cccc3c1)C(=O)N(CCN1CCN(CCN3C(=O)c4cccc5cc(N)cc(c45)C3=O)CC1)C2=O	inactive: > 100 µM
O=[N+]([O-])c1cccc([N+](=O)[O-])c1S(=O)(=O)c1ccccc1	inactive: 19.2 µM
CCOC(O)C(F)(F)F (stereo unspecified)	inactive: > 100 µM
N#CC12CCC(O)C(CC1)C2=O (stereo unspecified)	inactive: > 100 µM
CCCCc1oc2ccccc2c1C(=O)c1cc(I)c(OCCN(CC)CC)c(I)c1 [AMIODARONE HYDROCHLORIDE]	inactive: 4.93 µM
COC1(C)C(=O)N2C1N(C(=O)OC(C)(C)C)CC2(C)C (stereo unspecified)	inactive: > 100 µM
C[C@]12CC[C@H](O)CC1=CC[C@@H]1[C@@H]2CC[C@]2(C)C(=N/O)/C(=C/c3ccc([N+](=O)[O-])cc3)C[C@@H]12	inactive: 4.66 µM
CC1=NN(C(=O)c2ccccc2O)C(=O)/C1=C/c1ccco1	inactive: 7.66 µM
COC(=O)C1=C(OC(=O)/C(=C/c2ccccc2)c2ccc([N+](=O)[O-])cc2)C(C(=O)OC)[C@@]2(O)[C@@H](C(=O)OC)[C@H](C)C[C@@H]1[C@@H]2C(=O)OC (stereo partly specified)	inactive: > 100 µM
COc1ccc2nc3ccc(OC)cc3c([S+]([O-])Cc3ccccc3)c2c1 (stereo unspecified)	inactive: 18 µM
COc1cc2c(cc1O)C1C(O)C(O)C=C3CCN(C2)C31 (stereo unspecified)	inactive: 2.52 µM
CC12Cc3cc4c(cc3C1(c1ccc([N+](=O)[O-])cc1)OCCO2)OCO4 (stereo unspecified)	inactive: > 100 µM
CC(C)=CCCC1(Sc2ccccc2)C(=O)OCC1C=C(C)C (stereo unspecified)	inactive: 12.1 µM

SMILES	GI50
CC#CC#C/C=C1/O[C@]2(CCC(OC(C)=O)CO2)[C@@H]2O[C@H]12 (stereo partly specified)	inactive: 33.3 µM
COC(NC(=O)Nc1ccc(C)cc1)(C(F)(F)F)C(F)(F)F	inactive: 45.1 µM
O=C1c2nc3n(c2C(=O)c2c1nc1n2CCC1)CCC3	inactive: 4.3 µM
N[C@@H]1c2c(Br)sc(Br)c2C(=O)[C@H]1Br	inactive: > 100 µM
Nc1c(-c2ccccc2-c2c(N)[n+]([O-])c3ccccc3[n+]2[O-])[n+]([O-])c2ccccc2[n+]1[O-]	inactive: 7.87 µM
COc1c(C=O)c2c(c(OC)c1OC)-c1ccc(OC)c(=O)cc1[C@@H](NC(C)=O)CC2	active: 0.321 µM
O=c1c(F)cn(Cc2c(Cl)cccc2Cl)c(=O)n1Cc1c(Cl)cccc1Cl	inactive: > 31.6 µM
CC(NC(NC(C)C12CC3CC(CC(C3)C1)C2)=C(C(Cl)=C(Cl)Cl)[N+](=O)[O-])C12CC3CC(CC(C3)C1)C2 (stereo unspecified)	inactive: > 83.4 µM
COC(=O)c1ccc(/C=C2\CCc3ccccc3C2=O)cc1	inactive: > 100 µM
Cc1ccc(C(=O)N/N=C(\N=N\c2ccccc2Cl)c2ccc(N(C)C)cc2)cc1	inactive: 41.3 µM
CC1=CC(C)(c2c[nH]c3ccccc23)CC(C)(C)c2c1[nH]c1ccccc21 (stereo unspecified)	inactive: 19.1 µM
C=CC[C@H](C)CCC(=O)N1[C@H]2CC3CC[C@@]2(CS1(=O)=O)C3(C)C	inactive: > 100 µM
CCN1C(=O)/C(=C2\SC(c3ccccc3)(c3ccccc3)c3ccccc32)SC1=S	inactive: > 100 µM
COc1cc2ccc3c4ccccc4cnc3c2cc1OC	inactive: > 100 µM
O=Nc1c(-c2c(O)[nH]c3ccccc23)[nH]c2ccccc12 [INDIRUBIN-3-MONOXIME]	inactive: 4.72 µM
Cn1c(-c2ccccc2)cc(-c2cccs2)c1-c1cccs1	inactive: > 100 µM
O=S(=O)(N/C(=N\O)Nc1ccc(Cl)cc1)c1ccccc1	inactive: 16.1 µM
COc1ccc(-c2cc(-c3cc4cc(Br)ccc4nc3Cl)c(C#N)c(N)n2)cc1	inactive: > 12.5 µM
CC(=O)NC(CCCCNC(=O)NCCCl)C(=O)NCc1ccccc1 (stereo unspecified)	inactive: > 100 µM
O=C(CC(=O)Nc1ccccc1Cl)NNC(Sc1ccccc1)c1cc(/N=N/c2ccc(Br)cc2)ccc1O (stereo unspecified)	active: 0.611 µM
COc1cc(C(=O)Nc2cc(C(N)=O)cc(OC)c2OC)cc(NC(=O)/C=C/c2ccccc2)c1OC	inactive: 45.1 µM
CCCCCCCCC/C=C1\CCC(CN2CCOCC2)C1=O (stereo unspecified)	inactive: 14.1 µM
